{
  "source": "PubChem BioAssay AID588591",
  "about": "(National Center for Advancing Translational Sciences (NCATS), 2011)",
  "note": "Values joined by “and” are separate entries in the source; they are usually repeats but may differ in a detail not shown here. Equal values may be shown once. In all, about 390,000 compounds went through this assay and about 4,700 (1.2%) were called active. The shares of active, inactive and inconclusive entries below differ from those in the screen. The call rests on the fitted dose curve; in most records, active means well fitted inhibition curve with a large enough effect; inconclusive means small, poorly fitted or top-dose-only effect, or another doubt; inactive means no such curve, though single readings can be large or run the other way. Potencies beside an inconclusive call are fits to weak or partial responses and may not hold up. On the % scale 0 is the no-effect control and ±100 the full control effect; potency means the concentration at half of the fitted maximal effect; tags describe the fitted curve by direction and shape.",
  "data": [
    {"molecular_target": "DNA polymerase eta (Homo sapiens) (UniProt Q9Y253)", "sequence (Q9Y253 whole entry, looked up)": "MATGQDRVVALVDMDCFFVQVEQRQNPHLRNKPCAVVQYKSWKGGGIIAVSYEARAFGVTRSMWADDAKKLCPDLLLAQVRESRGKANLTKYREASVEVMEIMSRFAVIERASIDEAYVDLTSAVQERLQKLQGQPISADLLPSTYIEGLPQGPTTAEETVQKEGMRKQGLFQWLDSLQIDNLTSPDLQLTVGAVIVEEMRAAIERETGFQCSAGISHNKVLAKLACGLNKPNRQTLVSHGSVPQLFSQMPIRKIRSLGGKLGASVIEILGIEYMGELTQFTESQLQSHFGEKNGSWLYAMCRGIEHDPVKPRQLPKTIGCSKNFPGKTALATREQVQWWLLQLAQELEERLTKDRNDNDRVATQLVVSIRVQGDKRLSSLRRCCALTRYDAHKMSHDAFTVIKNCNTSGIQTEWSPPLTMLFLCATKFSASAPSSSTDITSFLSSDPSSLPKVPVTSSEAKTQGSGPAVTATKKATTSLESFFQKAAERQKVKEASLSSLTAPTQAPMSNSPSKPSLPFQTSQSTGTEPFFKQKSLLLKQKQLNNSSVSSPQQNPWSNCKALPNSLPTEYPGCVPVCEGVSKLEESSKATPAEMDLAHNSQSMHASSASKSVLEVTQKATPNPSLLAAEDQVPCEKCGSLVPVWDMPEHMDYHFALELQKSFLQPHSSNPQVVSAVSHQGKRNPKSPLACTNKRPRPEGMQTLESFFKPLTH", "assay": "qHTS for Inhibitors of Polymerase Eta", "details": "recombinant Pol eta, fluorescent DNA replication assay; series mostly up to 114 µM; activity change, negative = inhibition: at the top concentration", "how_it_was_run": "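Fluorescent replication assay: 50 nM final substrate added after a 15 min room-temperature compound preincubation with 10 nM enzyme. Signal taken at 0 min and again at 10 min.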", "values": [
      {"smiles": "O=c1[nH]c(=S)[nH]c(O)c1N=Nc1ccc(S(=O)(=O)N2CCOCC2)cc1", "Potency": "active: 50.1 µM"},
      {"smiles": "Cc1cccc(N2C(=O)NC(=O)/C(=C/c3ccc(N4CCOCC4)cc3)C2=O)c1", "activity change, negative = inhibition": "inactive: -3.76%"},
      {"smiles": "CC(=O)c1c(O)c(C)c(O)c(Cc2c(O)c3c(c(C(=O)/C=C/c4ccccc4)c2O)OC(C)(C)C=C3)c1O", "Potency": "inconclusive: 25.1 µM [inhibitor, single point]"},
      {"smiles": "CN1CC[C@@]2(C)c3cc(O)ccc3N(C)C2O1", "note": "(some centres undefined)", "Potency": "inconclusive: 89.1 µM [inhibitor, single point]"},
      {"smiles": "Clc1ccc(C(c2ccc(Cl)cc2)n2cc[n+](CC(OCc3ccc(Cl)cc3Cl)c3ccc(Cl)cc3Cl)c2)cc1", "note": "(centres undefined)", "Potency": "inconclusive: 11.2 µM [inhibitor, partial curve, poor fit]"},
      {"smiles": "CCN1C(=O)NC(=O)/C(=C/c2cc(C)n(-c3sc(C)c(C)c3C#N)c2C)C1=O", "Potency": "inconclusive: 17.8 µM [inhibitor, full curve, poor fit]"},
      {"smiles": "CCN(CC)c1ccc(C=C2C(=O)N(C)C(=S)N(C)C2=O)o1", "Potency": "inconclusive: 25.1 µM [inhibitor, full curve]"},
      {"smiles": "O=c1[nH]c(=O)n(-c2ccccc2)c(O)c1/C=C/C=Nc1ccccc1", "Potency": "inconclusive: 39.8 µM [inhibitor, single point]"},
      {"smiles": "COC(=O)C1=C(c2cccc(OCc3ccccc3)c2)C[C@@H]2CC[C@H]1N2C(=O)NCc1ccc(C(F)(F)F)cc1", "Potency": "inconclusive: 89.1 µM [inhibitor, partial curve, poor fit]"},
      {"smiles": "O=C1NC(=O)C(=Cc2ccc(OCCOc3ccc([N+](=O)[O-])cc3)cc2)C(=O)N1", "Potency": "active: 79.4 µM"},
      {"smiles": "CC(=NCC1CCCO1)c1c(O)n(C2CCCCC2)c(=O)[nH]c1=O", "note": "(centres undefined)", "Potency": "inconclusive: 39.8 µM [inhibitor, single point]"},
      {"smiles": "Brc1c(NC2=NCCN2)ccc2nccnc12", "Potency": "inconclusive: 28.2 µM [inhibitor, single point]"},
      {"smiles": "Nc1c2c(nc3sc4c(c13)CCCC4)CCCCC2", "Potency": "inconclusive: 15.8 µM [inhibitor, full curve, poor fit]"},
      {"smiles": "N#C/C(=C\\c1ccc(O)c(O)c1)C(=O)NCCCNC(=O)/C(C#N)=C/c1ccc(O)c(O)c1", "Potency": "active: 0.112 µM"},
      {"smiles": "C=CCn1c(O)c(C=Nc2ccc(Cc3ccncc3)cc2)c(=O)[nH]c1=S", "Potency": "inconclusive: 22.4 µM [inhibitor, single point]"},
      {"smiles": "O=C(O)Cn1cc(/C=C2\\C(=O)NC(=O)N(Cc3ccco3)C2=O)c2ccccc21", "Potency": "active: 1.58 µM"},
      {"smiles": "Cc1cccc(N2C(=O)NC(=O)/C(=C\\c3ccc4c(c3)CCCN4Cc3ccccc3)C2=O)c1", "Potency": "active: 22.4 µM"},
      {"smiles": "COCCNC(=O)c1c(NC(=O)c2ccc(Br)o2)n(Cc2ccccc2)c2nc3ccccc3nc12", "activity change, negative = inhibition": "inactive: -18.9%"},
      {"smiles": "CCOc1ccc(OC(=O)c2ccc3c(=O)n4c(nc3c2)CCC4)cc1", "Potency": "inconclusive: 28.2 µM [inhibitor, single point]"},
      {"smiles": "CCN1C(=O)/C(=C/c2ccc3c(c2)CCN3CCCCl)C(=O)NC1=S", "Potency": "active: 12.6 µM"},
      {"smiles": "CN(C)[C@@H]1C(=O)C(C(N)=O)=C(O)[C@@]2(O)C(=O)C3=C(O)c4c(O)cccc4[C@@](C)(O)[C@H]3[C@H](O)[C@@H]12", "Potency": "active: 7.94 µM and active: 3.98 µM"},
      {"smiles": "CC(=O)N1CCN(c2ccc(N=Cc3c(O)n(-c4ccc(Cl)cc4)c(=O)[nH]c3=O)cc2)CC1", "Potency": "inconclusive: 25.1 µM [inhibitor, partial curve, poor fit]"},
      {"smiles": "O=C1NC(=S)NC(=O)C12C(c1ccc(F)cc1)NC(=S)NC2c1ccc(F)cc1", "note": "(centres undefined)", "Potency": "active: 39.8 µM"},
      {"smiles": "CCOc1ccc(N2C(=O)/C(=C/c3ccc(C)o3)C(=O)NC2=S)cc1", "Potency": "active: 3.98 µM"},
      {"smiles": "Cc1ccc(OCCn2cccc2/C=C2/C(=O)NC(=O)N(Cc3ccco3)C2=O)cc1", "Potency": "active: 20 µM"},
      {"smiles": "O=[N+]([O-])c1ccc(N2CCCCCC2)c2nonc12", "Potency": "inconclusive: 56.2 µM [inhibitor, partial curve, poor fit]"},
      {"smiles": "CC(C)CCOP(=O)(c1ccc(N(C)C)cc1)C(O)c1ccc(C(C)C)cc1", "note": "(centres undefined)", "Potency": "inconclusive: 50.1 µM [inhibitor, full curve, poor fit]"},
      {"smiles": "C=CCN1C(=O)/C(=C\\c2ccc(N3CCOCC3)o2)C(=O)NC1=S", "Potency": "active: 28.2 µM"},
      {"smiles": "Cc1cc(O)c2c(c1)C(=O)C13C(=C2O)C(=O)[C@H]2[C@@H](O)[C@@H]1[C@H]1[C@H](O)[C@@H]3C(=O)C3=C(O)c4c(O)cc(C)cc4C(=O)C312", "note": "(some centres undefined)", "Potency": "inconclusive: 3.98 µM [inhibitor, full curve, poor fit]"},
      {"smiles": "COC(=O)Cn1cc(/C=C2\\C(=O)NC(=O)N(c3ccc(OC)cc3)C2=O)c2ccccc21", "activity change, negative = inhibition": "inactive: -18%"},
      {"smiles": "COc1cccc(N2C(=O)NC(=O)/C(=C\\c3ccc([N+](=O)[O-])s3)C2=O)c1", "Potency": "active: 17.8 µM"},
      {"smiles": "COC(=O)C1=C(c2cccc(OC)c2OC)C[C@@H]2CC[C@H]1N2C(=O)NCc1ccc(C(F)(F)F)cc1", "Potency": "inconclusive: 89.1 µM [inhibitor, partial curve, poor fit]"},
      {"smiles": "Cc1ccc(CC2C(=O)N(C)C(=O)N(C)C2=O)s1", "activity change, negative = inhibition": "inactive: 2.86%"},
      {"smiles": "O=C1NC(=O)N(Cc2ccccc2)C(=O)/C1=C\\c1ccco1", "Potency": "active: 20 µM"},
      {"smiles": "COC(=O)C1=C(c2ccc(F)cc2OCc2ccccc2)C[C@@H]2CC[C@H]1N2C(=O)NCC1CC1", "Potency": "inconclusive: 50.1 µM [inhibitor, partial curve, poor fit]"},
      {"smiles": "O=c1c2ccccc2nc(/C=C/c2ccc(O)cc2)n1-c1ccc(O)cc1", "Potency": "inconclusive: 39.8 µM [inhibitor, partial curve, poor fit]"},
      {"smiles": "Cc1oc2ccc(O)c(CN3CCCCCC3)c2c1C(=O)Nc1cccc(Cl)c1C", "Potency": "inconclusive: 100 µM [inhibitor, partial curve, poor fit]"},
      {"smiles": "CCCCn1c(NS(=O)(=O)c2ccccc2)c(C(=O)OCC)c2nc3ccccc3nc21", "Potency": "inconclusive: 89.1 µM [inhibitor, single point]"},
      {"smiles": "Cc1c(OC(=O)N(C)C)ccc2c1O/C(=C\\c1ccco1)C2=O", "activity change, negative = inhibition": "inactive: -20.2%"}
    ]}
  ]
}
